# Reference: PubChem BioAssay AID720709 (National Center for Advancing Translational Sciences (NCATS), 2013)
# Among all 360,000 compounds or so, about 520 (0.14%) were called active. Inconclusive means that the source gave no clear call. Such entries were picked first, then a sample of the others. The call rests on the fitted dose curve; in most records, active means well fitted inhibition curve with a large enough effect; inconclusive means small, poorly fitted or top-dose-only effect; inactive means no such curve, though single readings can be large or run the other way. Potencies of inconclusive entries are left out as doubtful fits.
# Biological target: Rap guanine nucleotide exchange factor 3 (Homo sapiens) (UniProt O95398)
# Assay: qHTS for Antagonist of cAMP-regulated guanine nucleotide exchange factor 3 (EPAC1): primary screen; further: nearly all actives have a fitted effect of over 50% in size;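 on activity change, negative = inhibition: plate controls were vehicle for no effect and positive control for full effect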
# Conditions: EPAC1 GEF assay, Rap1b-BODIPY-GDP exchange fluorescence; activity change, negative = inhibition: at 115 µM (top of the series)
# Potency means the concentration at half of the fitted maximal effect; tags describe the fitted curve by direction and shape.
# Chain of UniProt O95398 (O95398 whole entry, looked up): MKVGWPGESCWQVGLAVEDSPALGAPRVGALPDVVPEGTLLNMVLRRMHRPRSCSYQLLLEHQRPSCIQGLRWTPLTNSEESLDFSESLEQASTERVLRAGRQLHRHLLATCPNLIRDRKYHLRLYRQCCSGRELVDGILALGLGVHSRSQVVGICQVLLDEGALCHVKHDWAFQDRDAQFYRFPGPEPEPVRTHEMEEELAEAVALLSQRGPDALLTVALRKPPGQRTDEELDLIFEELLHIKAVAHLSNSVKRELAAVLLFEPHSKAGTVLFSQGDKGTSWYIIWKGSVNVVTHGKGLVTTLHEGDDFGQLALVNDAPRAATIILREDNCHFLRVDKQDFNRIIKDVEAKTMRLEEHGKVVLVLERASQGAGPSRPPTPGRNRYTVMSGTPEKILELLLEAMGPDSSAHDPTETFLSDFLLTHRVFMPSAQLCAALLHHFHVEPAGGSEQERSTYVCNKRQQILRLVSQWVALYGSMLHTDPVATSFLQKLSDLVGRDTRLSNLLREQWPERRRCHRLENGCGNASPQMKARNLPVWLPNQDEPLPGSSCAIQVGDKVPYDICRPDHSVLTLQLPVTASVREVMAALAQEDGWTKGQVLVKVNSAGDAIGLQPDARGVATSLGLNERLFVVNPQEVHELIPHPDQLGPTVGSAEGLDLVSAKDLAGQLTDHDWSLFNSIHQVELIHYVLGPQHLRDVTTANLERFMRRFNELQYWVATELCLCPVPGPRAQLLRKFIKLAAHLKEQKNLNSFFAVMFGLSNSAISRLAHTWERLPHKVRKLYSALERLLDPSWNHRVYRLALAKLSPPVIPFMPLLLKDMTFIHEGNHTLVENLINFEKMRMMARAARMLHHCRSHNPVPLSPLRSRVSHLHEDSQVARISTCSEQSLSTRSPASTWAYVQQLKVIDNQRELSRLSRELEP
Structure (SMILES),Potency,"activity change, negative = inhibition"
O=C(CSc1n[nH]c(=O)[nH]c1=O)Nc1ccc2c(c1)C(=O)c1ccccc1C2=O,"inconclusive [inhibitor, full curve]",
COc1cc(NC(=O)c2cc3ccccc3cc2O)c(OC)cc1Cl,"inconclusive [inhibitor, partial curve]",
N#Cc1cc2c(nc1SCC1COc3ccccc3O1)CCC2 (stereo not drawn),,inactive: 0%
COc1ccccc1CNC(=S)Nc1ccc2nc(N3CCN(C)CC3)cc(C)c2c1,"inconclusive [inhibitor, single point]",
CNC(=S)N(Cc1ccco1)Cc1cc2cc(OC)ccc2[nH]c1=O,"inconclusive [inhibitor, single point]",
CCOc1ccc(NC(=O)CSc2ncc(-c3ccc(F)cc3)n2Cc2ccco2)cc1,"inconclusive [inhibitor, partial curve, poor fit]",
O=C(O)C1CC(c2ccc(F)cc2)=NO1 (stereo not drawn),"inconclusive [inhibitor, single point]",
O=C(c1cccs1)c1no[n+]([O-])c1C(=O)c1cccs1,"inconclusive [inhibitor, partial curve]",
OC(CNCC(c1ccco1)N1CCCCC1)c1ccccc1 (stereo not drawn),,inactive: -3.05%
CC(C)(C)C(=O)Nc1ccc(S(=O)(=O)c2ccc(NC(=O)C(C)(C)C)cc2)cc1,"inconclusive [inhibitor, partial curve, poor fit]",
CCCCc1ccc(NC(=O)CSc2nc(=O)n3cc(C)ccc3n2)cc1,"inconclusive [inhibitor, full curve, poor fit]",
Cc1cc(N(C)C)nc(Nc2ccccc2)n1,"inconclusive [inhibitor, single point]",
CSc1oc(-c2ccccc2)nc1S(=O)(=O)c1ccc(F)cc1,,inactive: 7.8%
Cc1cc(C)c2nc(-c3ccccn3)cc(C(=O)Nc3ccc(S(=O)(=O)Nc4onc(C)c4C)cc3)c2c1,"inconclusive [inhibitor, partial curve]",
CC(C)CNC(=O)C(=O)Nc1cc2c3c(c1)C(C)C(=O)N3CCC2 (stereo not drawn),"inconclusive [inhibitor, single point]",
O=C(CCN1CCOCC1)NNC(=O)Nc1cccc(Cl)c1,"inconclusive [inhibitor, single point]",
CN(Cc1ccccc1)C(=O)c1ccc(NC(=O)Cc2ccc([N+](=O)[O-])cc2)cc1,"inconclusive [inhibitor, partial curve]",
O=C1O/C(=C/c2ccccc2)N=C1c1ccccc1,"inconclusive [inhibitor, single point]",
Cc1ccc(S(=O)(=O)Nc2nc3ccccc3s2)cc1[N+](=O)[O-],"inconclusive [inhibitor, single point]",
O=[N+]([O-])c1ccccc1O[C@@H]1O[C@H](CO)[C@H](O)[C@H](O)[C@H]1O,"inconclusive [inhibitor, single point]",
COC(=O)C1CCN(C(c2cccs2)c2sc3nc(C)nn3c2O)CC1 (stereo not drawn),"inconclusive [inhibitor, single point]",
Cc1ccccc1NC(=O)Cc1nc(COC(=O)c2ccc(O)cc2O)cs1,"inconclusive [inhibitor, partial curve]",
COc1ccc(Cl)cc1NC(=O)COC(=O)C(CC(C)C)N1C(=O)C2CC=CCC2C1=O (stereo not drawn),"inconclusive [inhibitor, single point]",

Structure (SMILES),Potency,"activity change, negative = inhibition"
CC(=O)c1cccc(NC(=S)N2CCN(c3ccccn3)CC2)c1,,inactive: -1.42%
O=C(O)c1ccc(CNC(=O)C23CC4CC(CC(C4)C2)C3)cc1,,inactive: 9.47%
CC(=O)NC(Cc1c[nH]c2ccccc12)C(=O)NCc1ccco1 (stereo not drawn),"inconclusive [inhibitor, partial curve]",
C=CCn1c(N)c(C(=O)NCc2ccco2)sc1=S,,inactive: -2.69%
Cc1cccc(-c2nc(CNC(=O)c3ccco3)cs2)c1,"inconclusive [inhibitor, single point]",
O=C1CC(c2ccccc2)c2c(O)cc(O)cc2O1 (stereo not drawn),"inconclusive [inhibitor, single point]",
COc1ccc2[nH]c(C)c(C(=O)CN3CCc4cc(OC)c(OC)cc4C3)c2c1,"inconclusive [inhibitor, partial curve]",
CC1=Nn2c(nnc2-c2ccccn2)SC1,,inactive: 8.72%
COc1cccc(N2CCN(C(=O)c3ccc(CS(=O)Cc4ccccc4Cl)o3)CC2)c1 (stereo not drawn),"inconclusive [inhibitor, full curve]",
CC[C@]12c3[nH]c4cc(CCC(=O)N(C)C)ccc4c3CCN1C(=O)[C@@H](CC(=O)NCc1cccc(C(F)(F)F)c1)C[C@@H]2C(=O)N1CCN(C(=O)C2CC2)CC1,,inactive: -4.58%
CCOC(=O)c1ccccc1NC(=O)C1CSC2(C)CCC(=O)N12 (stereo not drawn),"inconclusive [inhibitor, full curve]",
CN(C)S(=O)(=O)c1cccc(NC(=O)COC(=O)COc2ccccc2[N+](=O)[O-])c1,"inconclusive [inhibitor, single point]",
OC1C2CCC(C2)C1CN1CCOCC1 (stereo not drawn),,inactive: -0.498%
O=C(NN1C(=O)NC2(CCCCC2)C1=O)c1ccc(Cl)c(Cl)c1,"inconclusive [inhibitor, single point]",
NC(=O)c1ccc(Oc2ccc(C(N)=O)cc2)cc1,"inconclusive [inhibitor, partial curve]",
O=C(CSC1CC(=O)N(CC(c2ccccc2)c2ccccc2)C1=O)Nc1ccc(Cl)cc1 (stereo not drawn),"inconclusive [inhibitor, single point]",
CC(=O)Nc1ccc(N(CC(O)Cn2c3ccccc3c3ccccc32)S(=O)(=O)c2ccc(C)cc2)cc1 (stereo not drawn),"inconclusive [inhibitor, full curve]",
CCc1nc(OCC(=O)c2ccccc2)c(C#N)c2c1COC(C)(C)C2,"inconclusive [inhibitor, single point]",
NS(=O)(=O)c1ccc(NC(=O)Nc2ccc(S(N)(=O)=O)cc2)cc1,"inconclusive [inhibitor, partial curve]",
COc1ccc(OC)c(NC(=O)NC2CCCc3ccccc32)c1 (stereo not drawn),"inconclusive [inhibitor, partial curve]",
O=S(=O)(c1ccccc1)N(CC(F)(F)F)c1ccc(C(O)(C(F)(F)F)C(F)(F)F)cc1,"inconclusive [inhibitor, full curve]",
CCCCCCn1c(COc2ccccc2F)nnc1SCC(=O)N1c2ccccc2NC(=O)C1(C)C,"inconclusive [inhibitor, partial curve]",
COc1ccc(/C=N\Nc2ccc([N+](=O)[O-])cc2)c(C(=O)O)c1OC,"inconclusive [inhibitor, single point]",

Structure (SMILES),Potency,"activity change, negative = inhibition"
COc1cccc(/C=C/C(=O)c2cccc([N+](=O)[O-])c2)c1OC,"inconclusive [inhibitor, single point]",
O=C(NC(=S)N1CCCCC1c1cccnc1)c1ccccc1 (stereo not drawn),"inconclusive [inhibitor, single point]",
CSc1ccccc1OCc1cc(C(=O)NCc2csc(C(C)C)n2)no1,"inconclusive [inhibitor, full curve, poor fit]",
CC[C@@]1(C(=O)OC)N[C@H](CN(C)C(=O)Nc2ccc(OC)cc2)[C@@H]2C(=O)N(Cc3ccccc3)C(=O)[C@@H]21,,inactive: -0.897%
O=c1[nH]c(CN2CCN(Cc3ccccc3)CC2)nc2scc(-c3ccccc3)c12,"inconclusive [inhibitor, full curve, poor fit]",
COc1ccc(NC(=O)Nc2cccc(OC)c2)cc1,"inconclusive [inhibitor, full curve, poor fit]",
Cn1cccc1C(=O)OCc1nc2ccccc2c(=O)[nH]1,"inconclusive [inhibitor, single point]",
COc1ccccc1Cc1c(-c2ccc(C#N)cc2)nc2ccc(C)cn12,,inactive: -13.6%
Cc1ccc(C(=O)Nn2c(C)nc3ccccc3c2=O)cc1C,,inactive: 6.62%
CCOC(=O)N/N=C/c1ccc(N2CCOCC2)s1,"inconclusive [inhibitor, single point]",
CC12CCC(C(=O)NCc3ccc(F)cc3)(OC1=O)C2(C)C (stereo not drawn),,inactive: 9.92%
COCCN(CC(=O)NCC1CCCO1)C(=O)CCC(=O)Nc1ccccn1 (stereo not drawn),,inactive: 2.17%
Cc1onc(-c2ccccc2Cl)c1C(=O)NCc1ccc2c(c1)cc(C)n2C,,inactive: 8.56%
COc1ccccc1NC(=O)c1cc[n+]([O-])cc1,"inconclusive [inhibitor, full curve, poor fit]",
Cc1cc(Oc2cnn(C(C)(C)C)c(=O)c2Cl)cc(C(C)C)c1,,inactive: -2.03%
CCOC(=O)c1sc(N=NC2=C(O)CCCC2=O)c(C(=O)OCC)c1C,"inconclusive [inhibitor, partial curve]",
Cc1cccc(S(=O)(=O)NC2CCCCCCC2)c1,"inconclusive [inhibitor, full curve, poor fit]",
N=c1ccn(Cc2ccc(F)cc2)cc1,,inactive: -4.5%
CC1(C)C=C2C(=NN(c3ccccc3)C(N)=C2C#N)CO1,,inactive: -10.2%
O=C(NCc1ccccn1)Nc1cccc(Cl)c1,,inactive: -9.05%
CCOc1ccccc1Oc1cn[nH]c1-c1ccc(OC)cc1O,"inconclusive [inhibitor, partial curve]",
CCCCC(=O)Nc1nc2c(OC)cc([N+](=O)[O-])cc2s1,"inconclusive [inhibitor, partial curve]",
